Test results taken from PubChem BioAssay AID588855 (National Center for Advancing Translational Sciences (NCATS), 2011).
The whole screen tested about 410,000 compounds, of which about 5,000 (1.2%) were called active. Inconclusive means that the source gave no clear call. Such entries were picked first, then a sample of the others. The call rests on the fitted dose curve; in most records, active means well fitted inhibition curve with a large enough effect; inconclusive means small, poorly fitted or top-dose-only effect; inactive means no such curve, though single readings can be large or run the other way. Potencies of inconclusive entries are doubtful fits and often do not repeat.

Assay: qHTS for Inhibitors of TGF-b; further: nearly all actives have a fitted effect of over 65% in size
Conditions: HepG2 CAGA-GFP TGF-b/SMAD3 reporter, GFP fluorescence, 18 h, TGF-beta stimulated, 500 pg/mL final; series mostly up to 46.1 µM
In short: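 Smad-responsive CAGA-GFP expression was quantified in HEPG2 cells exposed to compounds and 500 pg/mL final TGF-beta for 18 h at 37 degrees C; unstimulated wells defined full inhibition.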
Potency means the concentration at half of the fitted maximal effect; tags describe the fitted curve by direction and shape.

Structure (SMILES) | Potency
Cc1cccc(NS(=O)(=O)c2ccc3nc(-c4ccccc4)[nH]c3c2)c1C | inconclusive: 28.2 µM [inhibitor, single point]
Cc1ccc(C)c(NC(=O)c2cc(-c3cc(C)c(C)cc3O)n[nH]2)c1 | inconclusive: 12.6 µM [inhibitor, single point]
Cc1ccccc1-c1ocnc1C(=O)Nc1ccccc1NC(=O)c1ccccn1 | active: 11.2 µM
OC[C@@H]1[C@@H](c2ccccc2)C(c2ccc(F)cc2)=NN1c1ccccc1 | active: 10 µM
COc1ccccc1CNS(=O)(=O)c1ccc(-n2cccn2)cc1 | inconclusive: 17.8 µM [inhibitor, partial curve, poor fit]
CN1c2ccccc2C(=O)N2CCc3c([nH]c4ccccc34)C21 (stereo not drawn) | inconclusive: 22.4 µM [inhibitor, single point]
COc1ccc(OCC(O)CNC(=O)Nc2cccc3ccccc23)cc1 (stereo not drawn) | inconclusive: 8.91 µM [inhibitor, partial curve, poor fit]
COc1ccc(CC(=O)NCc2ccc3c(c2)CCN3C(=O)c2cccc(C)c2)cc1 | inconclusive: 12.6 µM [inhibitor, partial curve, poor fit]
Cc1nc(-n2nc(C)c(Cc3ccc4c(c3)OCO4)c2C)sc1C(=O)Nc1ccc(Cl)cc1 | inactive
COc1cccc(NC(=O)Nc2ccc3c(c2)N(C)C(=O)CS3)c1 | inactive
Cc1ccsc1C1Nc2ccc3ncccc3c2C2=C1C(=O)CC(C)(C)C2 (stereo not drawn) | inconclusive: 25.1 µM [inhibitor, single point]
COc1ccc(C(=O)c2sc(Nc3cc(Cl)ccc3C)nc2N)cc1OC | inconclusive: 35.5 µM [inhibitor, single point]
Cc1ccn2c(Nc3ccc4c(c3)OCO4)c(-c3ccccn3)nc2c1 | inconclusive: 35.5 µM [inhibitor, single point]
Oc1ccc2ccccc2c1/C=N/c1nc2c(s1)CCCC2 | inconclusive: 2.24 µM [inhibitor, full curve, poor fit]
COc1ccc2[nH]c(-c3ccc(C)cc3)cc(=O)c2c1 | inactive
O=S(=O)(c1cccc(-c2cn3cccnc3n2)c1)N1CCCCCC1 | inconclusive: 35.5 µM [inhibitor, single point]
CCc1ccc2ncc3c(-c4ccc(C)cc4)nn(CC(=O)Nc4ccc(C)cc4)c3c2c1 | inactive
Cc1cc(C)c(NC(=O)Cn2c(=O)n(-c3ccc(F)cc3)c(=O)c3c(C)c(C(=O)N(C)C)sc32)c(C)c1 | inactive
O=C(NCCc1ccc(O)c(O)c1)C1COc2ccccc2O1 (stereo not drawn) | inactive
O=[N+]([O-])c1ccccc1S(=O)(=O)n1cnc2ccccc21 | inactive
CCOC(=O)c1c(NC(=O)c2cccs2)sc(C)c1C | inconclusive: 35.5 µM [inhibitor, single point]
O=C(Nc1ccccc1O)c1cccc(S(=O)(=O)Nc2ccccc2O)c1 | inconclusive: 3.98 µM [inhibitor, partial curve, poor fit]

Structure (SMILES) | Potency
NC(=O)C1=C[C@H](C2CCCCC2)C[C@H](OCc2ccc(CO)cc2)O1 | inconclusive: 5.62 µM [inhibitor, single point]
Cc1ccc(C(C)C)c(OCC(O)CN(C)Cc2ccccc2)c1 (stereo not drawn) | active: 15.8 µM
CSc1ccc(CCNc2ncnc3onc(-c4ccc(Cl)cc4)c23)cc1 | inconclusive: 3.16 µM [inhibitor, partial curve, poor fit]
Cc1ccc(OCC(=O)Nc2ccc3c(c2)nc(CCN2CCCC2)n3C)cc1 | inactive
Cc1ccc(-n2c3c(cc(C(=O)NCc4ccco4)c2=O)C(=O)CCC3)cc1 | inconclusive: 17.8 µM [inhibitor, single point]
COC(=O)C1CSC(C(=O)OC)N1C(=O)CN1CCN(c2ccccc2)CC1 (stereo not drawn) | inactive
Cc1nc2nc(SCC(=O)N(Cc3ccccc3)C(C)C)nn2c(C)c1Cc1ccccc1Cl | inconclusive: 31.6 µM [inhibitor, single point]
O=C(Nc1cccc(S(=O)(=O)NCc2ccco2)c1)c1cc(-c2ccccc2)nc2ccccc12 | inconclusive: 22.4 µM [inhibitor, single point]
CCCc1cc(=O)[nH]c(SCc2nc3ccc([N+](=O)[O-])cc3[nH]2)n1 | inconclusive: 22.4 µM [inhibitor, single point]
CCCc1cc(=O)oc2c(C)c(OCC(=O)N3C[C@H]4C[C@@H](C3)c3cccc(=O)n3C4)ccc12 | inactive
Cc1ccsc1C(=O)NCCC(c1ccccc1)c1ccccc1 | inconclusive: 35.5 µM [inhibitor, single point]
COc1ccccc1NC(=O)Nc1nc(C(C)(C)C)cs1 | inconclusive: 22.4 µM [inhibitor, single point]
Cc1cccc(N2CCN(C(=O)CCCCCn3c(=S)[nH]c4ccc(N5CCOCC5)cc4c3=O)CC2)c1C | inconclusive: 3.55 µM [inhibitor, full curve]
Cc1ccccc1NC(=S)N(Cc1ccccn1)Cc1ccccc1Cl | inconclusive: 0.112 µM [inhibitor, full curve, poor fit]
CC(C)(C)c1cc(C(=O)NN)n(Cc2ccc(Cl)cc2Cl)n1 | inconclusive: 35.5 µM [inhibitor, single point]
Cc1ccc(-n2nc3c(=O)n(CC(=O)NCc4ccco4)nc(C)c3c2C)cc1 | inconclusive: 3.16 µM [inhibitor, single point]
CC(CNc1nc2ccc(Cl)cc2n2cnnc12)c1ccccc1 (stereo not drawn) | inactive
COc1ccc(OCCCn2c(=O)oc3ccccc32)cc1 | inconclusive: 25.1 µM [inhibitor, single point]
COc1ccc(CNC(=O)CCc2c(C)c3cc4c(C)coc4cc3oc2=O)cc1 | inactive
CNC[C@@H]1OCc2ccccc2-c2c(n(C)c3ccccc23)C(=O)N([C@H](C)CO)C[C@@H]1C | inconclusive: 22.4 µM [inhibitor, single point]
Cc1ccc(SCC(=O)Nc2cccc(-c3nnc(-c4ccco4)o3)c2)cc1 | inconclusive: 12.6 µM [inhibitor, partial curve, poor fit]
